Source: the supplement of paper PMC11125491
± gives the standard deviation of the averaged measurements. Growth of baker's yeast expressing single-residue variants of Pneumocystis jirovecii dihydrofolate reductase in 8.8 or 44 µM methotrexate (about 75% and 90% inhibition of the wild type). Selection coefficient per generation; 0 = like wild type, above 0 = less sensitive, below 0 = more sensitive or loss of function. No active / inactive call per row; the paper calls resistant above 0.220 (8.8 µM) or 0.243 (44 µM) together with a significance test. At 44 µM about 15% of codons end with one read or none, so the lowest values are floors (replicate rank correlation 0.74; 0.94 at 8.8 µM).

B1: UniProt A0EPZ9; numbered along this chain (parent)
chain: MDWQKSLTLIVALTLSRGIGLKNDLPWKLKSDMMFFSRVTSGLLVTRSTGQMNVVLMGRKTWESLPAHSRPLKNRINVVISRQEVLDLGGGAYHARSLDDALALLSQIYDSTSKIQLNRVFVIGGGELCKAAMEHSRLNRIIATVIHNEVDCDVFFPIDFRSSQSCLPWRKQDHSVLEAWVGSKVPQGKINENGFIYEFEMWIRDI

Variants of: B1
Experiment: selection coefficient against synonymous wild-type codons (log2 per generation); higher = faster growth than wild type
Conditions: with Saccharomyces cerevisiae carrying the variant on a plasmid
Procedure: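 Pooled growth of yeast carrying single-residue variants of P. jirovecii dihydrofolate reductase (own DFR1 gene intact), two passages at 30 °C, three cultures, sequenced before and after. Codons with under 15 starting reads are left out; codons of one change are averaged.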

Variant	selection coefficient against synonymous wild-type codons (log2) (methotrexate 8.8 µM)	selection coefficient against synonymous wild-type codons (log2) (methotrexate 44 µM)
S41N	0.227 ± 0.0049	0.191 ± 0.07
V145A	-0.0852 ± 0.026	-0.167 ± 0.15
V145K	0.23 ± 0.017	0.31 ± 0.07
V145G	0.012 ± 0.031	0.0892 ± 0.23
V145M	-0.141 ± 0.019	-0.13 ± 0.091
T8P	-0.49 ± 0.071	-0.254 ± 0.055
M34E	0.177 ± 0.032	0.171 ± 0.084
C166T	-0.0104 ± 0.032	-0.0887 ± 0.11
C166K	0.0485 ± 0.0098	-0.0105 ± 0.043
C166W	-0.12 ± 0.043	-0.199 ± 0.12
E192K	0.173 ± 0.07	0.201 ± 0.025
E192S	0.0414 ± 0.039	0.00454 ± 0.1
F35L	0.386 ± 0.027	0.444 ± 0.04
F35M	0.409 ± 0.017	0.47 ± 0.027
V11Q	0.736 ± 0.027	0.897 ± 0.02
V154L	0.164 ± 0.057	0.133 ± 0.081
V154H	0.25 ± 0.023	0.0928 ± 0.05
V154T	0.096 ± 0.063	-0.0213 ± 0.012
D99E	-0.126 ± 0.0038	-0.146 ± 0.21
D99W	-0.589 ± 0.041	-0.303 ± 0.03

Variant	selection coefficient against synonymous wild-type codons (log2) (methotrexate 8.8 µM)	selection coefficient against synonymous wild-type codons (log2) (methotrexate 44 µM)
Y93W	-0.251 ± 0.055	-0.266 ± 0.11
Y93E	-0.534 ± 0.15	-0.36 ± 0.026
I115E	0.00623 ± 0.013	-0.0265 ± 0.031
K28N	-0.12 ± 0.048	-0.0652 ± 0.016
K28P	0.28 ± 0.046	0.245 ± 0.058
L98S	-0.669 ± 0.17	-0.24 ± 0.1
L21P	-0.199 ± 0.097	-0.1 ± 0.097
L21Q	0.319 ± 0.035	0.274 ± 0.037
G42R	-0.05 ± 0.068	-0.0634 ± 0.13
G125A	-0.444 ± 0.094	0.0575 ± 0.11
L43H	0.12 ± 0.016	0.104 ± 0.029
V185D	-0.345 ± 0.034	-0.183 ± 0.098
V185H	-0.338 ± 0.081	-0.148 ± 0.049
V185F	-0.147 ± 0.082	-0.104 ± 0.12
L105M	-0.313 ± 0.042	-0.294 ± 0.14
L105E	-0.834 ± 0.051	-0.329 ± 0.027
L117T	-0.122 ± 0.0098	-0.0437 ± 0.084
A131M	-0.19 ± 0.048	-0.121 ± 0.068
H135A	-0.307 ± 0.062	-0.317 ± 0.1
S183W	-0.364 ± 0.058	-0.331 ± 0.046

Variant	selection coefficient against synonymous wild-type codons (log2) (methotrexate 8.8 µM)	selection coefficient against synonymous wild-type codons (log2) (methotrexate 44 µM)
R47L	-0.273 ± 0.1	-0.254 ± 0.12
M33K	0.836 ± 0.029	1.09 ± 0.015
M33S	1.01 ± 0.039	1.31 ± 0.019
M33C	0.755 ± 0.036	0.949 ± 0.022
L7M	-0.159 ± 0.11	-0.0575 ± 0.078
Q83N	-0.244 ± 0.029	-0.0773 ± 0.019
M133C	-0.127 ± 0.029	-0.182 ± 0.052
K171G	-0.169 ± 0.064	-0.32 ± 0.069
K171D	-0.164 ± 0.049	-0.296 ± 0.15
I123P	-0.554 ± 0.17	-0.122 ± 0.12
P157D	0.0447 ± 0.021	-0.0102 ± 0.079
H174K	0.0753 ± 0.043	0.0623 ± 0.078
S162C	-0.139 ± 0.074	-0.136 ± 0.12
G58E	-0.533 ± 0.046	-0.303 ± 0.11
I203S	0.0923 ± 0.028	0.0382 ± 0.076
H68P	-0.293 ± 0.1	-0.0748 ± 0.078
S64A	-0.0843 ± 0.051	-0.0568 ± 0.057
S81R	-0.682 ± 0.048	-0.164 ± 0.093
